Results published in PMC10497417.
Numbering of substitutions follows the chain as printed. No constants are given. Whether binding was seen depends on the method and setting. Binding seen in cells or lysates may run through a third protein. Some results given as binding are weak or reduced against the parent protein; the word gives no strength. For some of these results: Where a sequence is shown, tags or fusion partners need not be part of it. Each block holds one molecule with its values, some of them ahead of it.

Protein sequences, listed by entry. Tags and fused reporters are not part of them.
UniProt Q8IY92: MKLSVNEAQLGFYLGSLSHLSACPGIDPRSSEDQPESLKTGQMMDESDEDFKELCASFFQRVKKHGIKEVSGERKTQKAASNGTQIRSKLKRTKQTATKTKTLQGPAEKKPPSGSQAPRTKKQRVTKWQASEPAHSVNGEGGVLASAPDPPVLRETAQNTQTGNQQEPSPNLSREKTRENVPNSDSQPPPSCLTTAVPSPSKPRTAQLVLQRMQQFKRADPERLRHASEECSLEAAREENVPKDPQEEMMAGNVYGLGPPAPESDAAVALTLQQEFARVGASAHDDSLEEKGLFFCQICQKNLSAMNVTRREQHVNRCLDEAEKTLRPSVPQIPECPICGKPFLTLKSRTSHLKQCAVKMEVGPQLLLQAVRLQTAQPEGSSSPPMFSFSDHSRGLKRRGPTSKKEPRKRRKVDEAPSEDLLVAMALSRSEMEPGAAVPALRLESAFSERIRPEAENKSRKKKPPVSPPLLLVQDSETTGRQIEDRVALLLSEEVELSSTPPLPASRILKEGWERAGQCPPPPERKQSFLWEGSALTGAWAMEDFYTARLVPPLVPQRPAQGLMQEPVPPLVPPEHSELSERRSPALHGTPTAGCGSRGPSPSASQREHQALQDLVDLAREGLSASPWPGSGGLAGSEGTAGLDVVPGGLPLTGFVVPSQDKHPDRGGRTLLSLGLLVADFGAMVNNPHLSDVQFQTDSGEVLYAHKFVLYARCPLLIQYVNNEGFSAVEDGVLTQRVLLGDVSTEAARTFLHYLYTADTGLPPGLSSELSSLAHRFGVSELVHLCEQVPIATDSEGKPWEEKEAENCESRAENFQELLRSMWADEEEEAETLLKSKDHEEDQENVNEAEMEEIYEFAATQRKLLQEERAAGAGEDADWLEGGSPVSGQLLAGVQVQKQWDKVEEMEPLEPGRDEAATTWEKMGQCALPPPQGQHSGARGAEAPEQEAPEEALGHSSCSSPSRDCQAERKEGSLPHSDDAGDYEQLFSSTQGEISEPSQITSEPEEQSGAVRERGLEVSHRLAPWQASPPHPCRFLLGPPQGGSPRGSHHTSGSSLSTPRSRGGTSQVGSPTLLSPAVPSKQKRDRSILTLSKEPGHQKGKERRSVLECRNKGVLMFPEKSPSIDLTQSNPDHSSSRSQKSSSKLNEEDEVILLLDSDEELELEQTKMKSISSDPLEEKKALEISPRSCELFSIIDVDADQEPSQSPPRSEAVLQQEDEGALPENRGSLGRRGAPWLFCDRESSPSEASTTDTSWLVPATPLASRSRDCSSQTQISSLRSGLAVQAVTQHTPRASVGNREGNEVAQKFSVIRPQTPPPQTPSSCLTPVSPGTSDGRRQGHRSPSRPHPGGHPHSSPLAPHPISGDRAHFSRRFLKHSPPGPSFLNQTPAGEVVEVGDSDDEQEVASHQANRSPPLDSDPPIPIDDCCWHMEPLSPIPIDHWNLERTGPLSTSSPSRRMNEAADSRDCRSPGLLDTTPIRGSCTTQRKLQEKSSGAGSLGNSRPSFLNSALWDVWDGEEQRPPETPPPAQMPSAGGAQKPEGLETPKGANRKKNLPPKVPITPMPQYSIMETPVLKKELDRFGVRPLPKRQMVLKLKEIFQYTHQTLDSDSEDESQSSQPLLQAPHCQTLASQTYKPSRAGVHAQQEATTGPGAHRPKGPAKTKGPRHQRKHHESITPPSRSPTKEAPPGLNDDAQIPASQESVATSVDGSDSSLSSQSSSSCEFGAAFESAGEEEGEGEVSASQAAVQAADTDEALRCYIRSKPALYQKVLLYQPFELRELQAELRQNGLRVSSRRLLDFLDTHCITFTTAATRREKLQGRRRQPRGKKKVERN
UniProt P63279: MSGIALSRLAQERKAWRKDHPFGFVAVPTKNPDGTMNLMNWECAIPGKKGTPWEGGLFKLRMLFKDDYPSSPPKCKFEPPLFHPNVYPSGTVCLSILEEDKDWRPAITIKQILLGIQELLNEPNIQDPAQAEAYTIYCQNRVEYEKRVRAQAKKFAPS

Columns and labels:
[1] = biological target: T1, GFP-NIP45 WT (HEK293 cells) (human) (UniProt Q8NCF5); assay: co-IP; GFP immunoprecipitates from whole-cell lysates of HEK293 cells transfected with GFP-NIP45 WT and Flag-HA-SLX4; western blot
T1 sequence: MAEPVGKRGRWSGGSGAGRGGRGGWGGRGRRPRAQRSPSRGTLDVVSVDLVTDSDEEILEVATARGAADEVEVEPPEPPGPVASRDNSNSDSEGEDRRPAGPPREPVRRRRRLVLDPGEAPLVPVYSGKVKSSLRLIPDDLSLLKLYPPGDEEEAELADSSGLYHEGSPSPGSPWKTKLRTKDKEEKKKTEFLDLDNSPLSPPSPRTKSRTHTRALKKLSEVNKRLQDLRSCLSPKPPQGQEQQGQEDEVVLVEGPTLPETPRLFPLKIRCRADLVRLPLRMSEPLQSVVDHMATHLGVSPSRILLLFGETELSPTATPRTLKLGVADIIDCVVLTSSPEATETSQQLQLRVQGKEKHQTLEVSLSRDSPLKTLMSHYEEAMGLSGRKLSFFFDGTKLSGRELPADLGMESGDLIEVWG

[2] = biological target: T2, GFP-NIP45 SLD2* (D394R) (human) (UniProt Q8NCF5); assay: co-IP; GFP-trap pulldown from lysates of U2OS Flp-In T-REx NIP45-KO cells expressing GFP only or GFP-NIP45 alleles; low-salt buffer (50 mM Tris-HCl pH 7.5, 50 mM NaCl, 1 mM EDTA, 1% NP-40), 4 °C; immunoblot
T2 sequence: T1 sequence with D394R

[3] = biological target: T3, GFP-NIP45 WT (U2OS Flp-In T-REx NIP45-KO cells) (human) (UniProt Q8NCF5); assay: as above
T3 sequence: T1 sequence

[4] = biological target: T4, GFP-NIP45 ΔSLD1 (human) (UniProt Q8NCF5); assay: as above
T4 sequence: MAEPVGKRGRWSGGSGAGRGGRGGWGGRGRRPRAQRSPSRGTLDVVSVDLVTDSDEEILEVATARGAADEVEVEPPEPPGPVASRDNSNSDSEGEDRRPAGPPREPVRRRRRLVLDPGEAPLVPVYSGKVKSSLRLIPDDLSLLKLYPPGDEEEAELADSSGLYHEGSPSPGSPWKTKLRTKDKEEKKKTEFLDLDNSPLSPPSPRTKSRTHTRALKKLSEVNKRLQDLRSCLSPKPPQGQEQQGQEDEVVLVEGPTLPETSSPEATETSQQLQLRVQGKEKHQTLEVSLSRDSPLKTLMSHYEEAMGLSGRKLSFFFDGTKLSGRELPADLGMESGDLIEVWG

[5] = biological target: T5, GFP-NIP45 ΔSLD2 (human) (UniProt Q8NCF5); assay: as above
T5 sequence: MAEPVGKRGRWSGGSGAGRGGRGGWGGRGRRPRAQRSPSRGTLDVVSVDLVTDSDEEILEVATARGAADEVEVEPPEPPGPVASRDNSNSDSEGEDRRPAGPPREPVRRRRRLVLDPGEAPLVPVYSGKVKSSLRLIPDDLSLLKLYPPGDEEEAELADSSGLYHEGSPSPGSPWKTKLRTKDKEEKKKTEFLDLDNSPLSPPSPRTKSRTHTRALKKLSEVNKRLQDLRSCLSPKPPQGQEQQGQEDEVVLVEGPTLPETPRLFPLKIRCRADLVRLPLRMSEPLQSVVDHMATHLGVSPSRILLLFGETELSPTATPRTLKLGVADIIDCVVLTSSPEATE

[6] = biological target: T6, NFAT-interacting protein 45 (NIP45), endogenous (human (endogenous in HeLa)) (UniProt Q8NCF5); assay: co-IP; NIP45 immunoprecipitation (sheep anti-NIP45 on protein G beads, sheep IgG as control) from whole-cell lysates of HeLa wt and NIP45-KO cells; EBC buffer (50 mM Tris-HCl pH 7.5, 150 mM NaCl, 1 mM EDTA, 0.5% NP-40), 4 h at 4 °C; immunoblot
T6 sequence: T1 sequence

[7] = biological target: GFP-SLX4 (human) (UniProt Q8IY92); assay: co-IP; GFP IPs (GFP-trap, low-salt buffer) from whole-cell lysates of parental U2OS cells or U2OS cells expressing GFP-SLX4, transfected with mCherry-NIP45; immunoblot

binding [1]: binds
Molecule: Flag-HA-SLX4 (from UniProt Q8IY92 1-1834)

binding [2]: no binding | binding [3]: binds | binding [4]: binds | binding [5]: no binding | binding [6]: binds
Molecule: SUMO E2 enzyme UBC9, endogenous (from UniProt P63279 1-158)

binding [7]: binds
B1: mCherry-NIP45 (protein, UniProt Q8NCF5 1-419)
chain: T1 sequence
